{"source": "the supplement of paper PMC8728848", "binders": {"B1": {"name": "Malectin (Xenopus laevis), Q6INX3 (protein)", "chain": "SGLADKVIWAVNAGGESHVDVHGIHYRKDPLEGRVGRASDYGMKLPILRSNPEDQVLYQTERYNEDSFGYDIPIKEEGEYVLVLKFAEVYFAQSQQKVFDVRVNGHTVVKDLDIFDRVGHSTAHDEIIPISIKKGKLSVQGEVSTFTGKLSVEFVKGYYDNPKVCALFIMKGTADDVPMLQPHPGLE"}}, "assay_in_all_cases": "glycan array binding signal (z-score within array); higher = stronger binding", "settings_in_all_cases": "glycan notation: IUPAC condensed, linker removed", "key": {"[1]": {"target": "Glc(b1-3)Glc(b1-3)Glc(b1-3)Glc(b1-3)Glc(b1-3)Glc(b1-3)Glc", "in_short": "(§1)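 Columns mapping to the same glycan were averaged after glycan names were converted to IUPAC-condensed notation. The data come from 3228 arrays in the Consortium for Functional Glycomics database, limited to those with an available protein sequence. Binding is reported as a within-array Z-score averaged across arrays of one protein sequence and across linkers.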"}, "Glc(b1-4)Glc": {"target": "Glc(b1-4)Glc", "in_short": "as §1"}, "Glc(b1-4)Glc(b1-4)Glc": {"target": "Glc(b1-4)Glc(b1-4)Glc", "in_short": "as §1"}, "[2]": {"target": "Glc(b1-4)Glc(b1-4)Glc(b1-4)Glc", "in_short": "as §1"}, "[3]": {"target": "Glc(b1-4)Glc(b1-4)Glc(b1-4)Glc(b1-4)Glc", "in_short": "as §1"}, "[4]": {"target": "Glc(b1-4)Glc(b1-4)Glc(b1-4)Glc(b1-4)Glc(b1-4)Glc", "in_short": "as §1"}, "Glc(b1-6)Glc": {"target": "Glc(b1-6)Glc", "in_short": "as §1"}, "Glc(b1-6)Glc(b1-6)Glc": {"target": "Glc(b1-6)Glc(b1-6)Glc", "in_short": "as §1"}, "[5]": {"target": "Glc(b1-6)Glc(b1-6)Glc(b1-6)Glc", "in_short": "as §1"}, "[6]": {"target": "Glc(b1-6)Glc(b1-6)Glc(b1-6)Glc(b1-6)Glc", "in_short": "as §1"}, "[7]": {"target": "Glc(b1-6)Glc(b1-6)Glc(b1-6)Glc(b1-6)Glc(b1-6)Glc", "in_short": "as §1"}, "[8]": {"target": "Glc(b1-6)Glc(b1-6)Glc(b1-6)Glc(b1-6)Glc(b1-6)Glc(b1-6)Glc", "in_short": "as §1"}, "GlcA(b1-3)Gal": {"target": "GlcA(b1-3)Gal", "in_short": "as §1"}, "[9]": {"target": "GlcA(b1-3)Gal(b1-3)GlcNAc", "in_short": "as §1"}, "[10]": {"target": "GlcA(b1-3)Gal(b1-4)GlcNAc(b1-3)Gal(b1-4)Glc", "in_short": "as §1"}, "[11]": {"target": "GlcA(b1-3)Gal(b1-4)GlcNAc(b1-3)Gal(b1-4)GlcNAc(b1-3)Gal(b1-4)Glc", "in_short": "as §1"}, "[12]": {"target": "GlcA(b1-3)GlcNAc(b1-4)GlcA(b1-3)GlcNAc", "in_short": "as §1"}, "[13]": {"target": "GlcA(b1-3)GlcNAc(b1-4)GlcA(b1-3)GlcNAc(b1-4)GlcA(b1-3)GlcNAc(b1-4)GlcA(b1-3)GlcNAc(b1-4)GlcA(b1-3)GlcNAc(b1-4)GlcA(b1-3)GlcNAc(b1-4)GlcA(b1-3)GlcNAc", "in_short": "as §1"}, "GlcA3S(b1-3)Gal": {"target": "GlcA3S(b1-3)Gal", "in_short": "as §1"}, "[14]": {"target": "GlcA3S(b1-3)Gal(b1-4)GlcNAc(b1-3)Gal(b1-4)Glc", "in_short": "as §1"}, "[15]": {"target": "GlcA3S(b1-3)Gal(b1-4)GlcNAc(b1-3)Gal(b1-4)GlcNAc(b1-3)Gal(b1-4)Glc", "in_short": "as §1"}, "GlcNAc(a1-4)Gal": {"target": "GlcNAc(a1-4)Gal", "in_short": "as §1"}, "[16]": {"target": "GlcNAc(a1-4)Gal(b1-3)[Fuc(a1-2)]Gal", "in_short": "as §1"}, "[17]": {"target": "GlcNAc(b1-2)Man(a1-3)[GlcNAc(b1-2)Man(a1-6)]Man(b1-4)GlcNAc(b1-4)GlcNAc", "in_short": "as §1"}, "[18]": {"target": "GlcNAc(b1-2)Man(a1-3)[GlcNAc(b1-2)Man(a1-6)]Man(b1-4)GlcNAc(b1-4)[Fuc(a1-6)]GlcNAc", "in_short": "as §1"}, "[19]": {"target": "GlcNAc(b1-2)Man(a1-3)[GlcNAc(b1-2)Man(a1-6)][GlcNAc(b1-4)]Man(b1-4)GlcNAc(b1-4)GlcNAc", "in_short": "as §1"}, "[20]": {"target": "GlcNAc(b1-2)Man(a1-3)[Man(a1-3)[Man(a1-6)]Man(a1-6)][GlcNAc(b1-4)]Man(b1-4)GlcNAc(b1-4)GlcNAc", "in_short": "as §1"}, "[21]": {"target": "GlcNAc(b1-2)[GlcNAc(b1-4)]Man(a1-3)[GlcNAc(b1-2)Man(a1-6)][GlcNAc(b1-4)]Man(b1-4)GlcNAc(b1-4)GlcNAc", "in_short": "as §1"}, "[22]": {"target": "GlcNAc(b1-2)[GlcNAc(b1-4)]Man(a1-3)[GlcNAc(b1-2)[GlcNAc(b1-4)][GlcNAc(b1-6)]Man(a1-6)][GlcNAc(b1-4)]Man(b1-4)GlcNAc(b1-4)GlcNAc", "in_short": "as §1"}, "[23]": {"target": "GlcNAc(b1-2)[GlcNAc(b1-4)]Man(a1-3)[GlcNAc(b1-2)[GlcNAc(b1-6)]Man(a1-6)]Man(b1-4)GlcNAc(b1-4)GlcNAc", "in_short": "as §1"}, "GlcNAc(b1-3)Fuc": {"target": "GlcNAc(b1-3)Fuc", "in_short": "as §1"}, "GlcNAc(b1-3)Gal(b1-4)Glc": {"target": "GlcNAc(b1-3)Gal(b1-4)Glc", "in_short": "as §1"}, "[24]": {"target": "GlcNAc(b1-3)[GlcNAc(b1-6)]Gal(b1-4)GlcNAc(b1-3)[GlcNAc(b1-6)]Gal(b1-4)GlcNAc(b1-3)Gal(b1-4)Glc", "in_short": "as §1"}, "GlcNAc(b1-4)GlcNAc": {"target": "GlcNAc(b1-4)GlcNAc", "in_short": "as §1"}, "[25]": {"target": "GlcNAc(b1-4)GlcNAc(b1-4)GlcNAc", "in_short": "as §1"}, "[26]": {"target": "HexA(a1-3)GalNAc4S(b1-4)GlcA(b1-3)GalNAc4S", "in_short": "as §1"}, "[27]": {"target": "HexA(a1-3)GalNAc4S(b1-4)GlcA(b1-3)GalNAc4S(b1-4)GlcA(b1-3)GalNAc4S(b1-4)GlcA(b1-3)GalNAc4S(b1-4)GlcA(b1-3)GalNAc4S(b1-4)GlcA(b1-3)GalNAc4S(b1-4)GlcA(b1-3)GalNAc4S", "in_short": "as §1"}, "[28]": {"target": "HexA(a1-3)GalNAc4S(b1-4)IdoA(a1-3)GalNAc4S", "in_short": "as §1"}, "[29]": {"target": "HexA(a1-3)GalNAc4S(b1-4)IdoA(a1-3)GalNAc4S(b1-4)IdoA(a1-3)GalNAc4S(b1-4)IdoA(a1-3)GalNAc4S(b1-4)IdoA(a1-3)GalNAc4S(b1-4)IdoA(a1-3)GalNAc4S(b1-4)IdoA(a1-3)GalNAc4S", "in_short": "as §1"}, "[30]": {"target": "HexA(a1-3)GalNAc6S(b1-4)GlcA(b1-3)GalNAc6S", "in_short": "as §1"}, "[31]": {"target": "HexA(a1-3)GalNAc6S(b1-4)GlcA(b1-3)GalNAc6S(b1-4)GlcA(b1-3)GalNAc6S(b1-4)GlcA(b1-3)GalNAc6S(b1-4)GlcA(b1-3)GalNAc6S(b1-4)GlcA(b1-3)GalNAc6S(b1-4)GlcA(b1-3)GalNAc6S", "in_short": "as §1"}, "[32]": {"target": "HexA(a1-4)GlcNAc(a1-4)HexA(a1-4)GlcNAc(a1-4)HexA(a1-4)GlcNAc(a1-4)HexA(a1-4)Man", "in_short": "as §1"}, "HexA2S(a1-4)GlcNS6S": {"target": "HexA2S(a1-4)GlcNS6S", "in_short": "as §1"}, "[33]": {"target": "Kdn(a2-3)[GalNAc(b1-4)]Gal(b1-3)GlcNAc", "in_short": "as §1"}, "Man(a1-2)Man": {"target": "Man(a1-2)Man", "in_short": "as §1"}}, "note": "Some of the results follow.", "data": [{"binder": "B1", "values": [{"measurement": "glycan array binding signal (z-score)", "setting": "[1]", "value": -0.159}, {"measurement": "glycan array binding signal (z-score)", "setting": "Glc(b1-4)Glc", "value": -0.225}, {"measurement": "glycan array binding signal (z-score)", "setting": "Glc(b1-4)Glc(b1-4)Glc", "value": -0.216}, {"measurement": "glycan array binding signal (z-score)", "setting": "[2]", "value": -0.223}, {"measurement": "glycan array binding signal (z-score)", "setting": "[3]", "value": -0.201}, {"measurement": "glycan array binding signal (z-score)", "setting": "[4]", "value": -0.198}, {"measurement": "glycan array binding signal (z-score)", "setting": "Glc(b1-6)Glc", "value": -0.223}, {"measurement": "glycan array binding signal (z-score)", "setting": "Glc(b1-6)Glc(b1-6)Glc", "value": -0.212}, {"measurement": "glycan array binding signal (z-score)", "setting": "[5]", "value": -0.216}, {"measurement": "glycan array binding signal (z-score)", "setting": "[6]", "value": -0.176}, {"measurement": "glycan array binding signal (z-score)", "setting": "[7]", "value": -0.079}, {"measurement": "glycan array binding signal (z-score)", "setting": "[8]", "value": -0.115}, {"measurement": "glycan array binding signal (z-score)", "setting": "GlcA(b1-3)Gal", "value": -0.076}, {"measurement": "glycan array binding signal (z-score)", "setting": "[9]", "value": -0.069}, {"measurement": "glycan array binding signal (z-score)", "setting": "[10]", "value": -0.072}, {"measurement": "glycan array binding signal (z-score)", "setting": "[11]", "value": -0.074}, {"measurement": "glycan array binding signal (z-score)", "setting": "[12]", "value": -0.074}, {"measurement": "glycan array binding signal (z-score)", "setting": "[13]", "value": -0.071}, {"measurement": "glycan array binding signal (z-score)", "setting": "GlcA3S(b1-3)Gal", "value": -0.074}, {"measurement": "glycan array binding signal (z-score)", "setting": "[14]", "value": -0.075}, {"measurement": "glycan array binding signal (z-score)", "setting": "[15]", "value": -0.074}, {"measurement": "glycan array binding signal (z-score)", "setting": "GlcNAc(a1-4)Gal", "value": -0.076}, {"measurement": "glycan array binding signal (z-score)", "setting": "[16]", "value": -0.076}, {"measurement": "glycan array binding signal (z-score)", "setting": "[17]", "value": -0.076}, {"measurement": "glycan array binding signal (z-score)", "setting": "[18]", "value": -0.076}, {"measurement": "glycan array binding signal (z-score)", "setting": "[19]", "value": -0.072}, {"measurement": "glycan array binding signal (z-score)", "setting": "[20]", "value": -0.076}, {"measurement": "glycan array binding signal (z-score)", "setting": "[21]", "value": -0.076}, {"measurement": "glycan array binding signal (z-score)", "setting": "[22]", "value": -0.074}, {"measurement": "glycan array binding signal (z-score)", "setting": "[23]", "value": -0.076}, {"measurement": "glycan array binding signal (z-score)", "setting": "GlcNAc(b1-3)Fuc", "value": -0.076}, {"measurement": "glycan array binding signal (z-score)", "setting": "GlcNAc(b1-3)Gal(b1-4)Glc", "value": -0.074}, {"measurement": "glycan array binding signal (z-score)", "setting": "[24]", "value": -0.076}, {"measurement": "glycan array binding signal (z-score)", "setting": "GlcNAc(b1-4)GlcNAc", "value": -0.076}, {"measurement": "glycan array binding signal (z-score)", "setting": "[25]", "value": -0.071}, {"measurement": "glycan array binding signal (z-score)", "setting": "[26]", "value": -0.073}, {"measurement": "glycan array binding signal (z-score)", "setting": "[27]", "value": -0.074}, {"measurement": "glycan array binding signal (z-score)", "setting": "[28]", "value": -0.076}, {"measurement": "glycan array binding signal (z-score)", "setting": "[29]", "value": -0.076}, {"measurement": "glycan array binding signal (z-score)", "setting": "[30]", "value": -0.074}, {"measurement": "glycan array binding signal (z-score)", "setting": "[31]", "value": -0.076}, {"measurement": "glycan array binding signal (z-score)", "setting": "[32]", "value": -0.07}, {"measurement": "glycan array binding signal (z-score)", "setting": "HexA2S(a1-4)GlcNS6S", "value": -0.076}, {"measurement": "glycan array binding signal (z-score)", "setting": "[33]", "value": -0.075}, {"measurement": "glycan array binding signal (z-score)", "setting": "Man(a1-2)Man", "value": -0.076}]}]}
